Laboratory results published in PubChem BioAssay (NCATS).
Several values for one entry are separate records, joined by “and”; a condition that tells them apart may be missing. Equal entries are not always repeated. The inconclusive results got no clear call from the source; some entries with a clear call stand among them for comparison. A potency beside an inconclusive call is a rough fit, not a confirmed value. Activity calls are given as the source filed them. The call rests on the fitted dose curve; in most records, active means well fitted curve in the direction sought with a large enough effect; inconclusive means small, poorly fitted or top-dose-only effect, or another doubt; inactive means no such curve, though single readings can be large; an effect the other way counts as inactive or inconclusive.

Experiments:
[1] = qHTS of pediatric cancer cell lines to identify multiple opportunities for drug repurposing: Primary screen for DAOY cells (AID 1347090); settings: DAOY medulloblastoma viability, CellTiter-Glo luminescence, 48 h; activity change, negative = cytotoxic: at 46 µM (top of the series); further: nearly all actives have a fitted effect of over 55% in size
Summary of the method: (§1)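 Viability measured as metabolically active cells via CellTiter-Glo luminescence following 48 hours of compound exposure, 11-point dilutions in confirmatory testing. 500-1,000 cells/well plated 5 hours before dosing; controls were DMSO and 2.3 µM bortezomib.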

[2] = qHTS of pediatric cancer cell lines to identify multiple opportunities for drug repurposing: Primary screen for SJ-GBM2 cells (AID 1347091)
Summary of the method: as §1

[3] = qHTS of pediatric cancer cell lines to identify multiple opportunities for drug repurposing: Primary screen for A673 cells (AID 1347092); settings: A673 Ewing sarcoma viability, CellTiter-Glo ATP luminescence, 48 h; activity change, negative = cytotoxic: at 46 µM (top of the series); further: nearly all actives have a fitted effect of over 45% in size
Summary of the method: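 A673 cells (500-1,000 cells/well in growth media) were pre-incubated 5 h at 37 degrees C, then exposed to compounds for 48 h. Viability was read as CellTiter-Glo luminescence; concentration-response curves came directly from the primary screen.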

[4] = qHTS of pediatric cancer cell lines to identify multiple opportunities for drug repurposing: Primary screen for NB-EBc1 cells (AID 1347095)
Summary of the method: (§2)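 Cells seeded at 500-1,000 cells/well in growth media, rested 5 hours at 37 degrees C, 5% CO2, then dosed; MIPE compounds at 11-point (from 0.78 nM) and NPC at 8-point (from 0.59 nM) final concentrations. Viability by CellTiter-Glo luminescence after 48 hours.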

[5] = qHTS of pediatric cancer cell lines to identify multiple opportunities for drug repurposing: Primary screen for SK-N-SH cells (AID 1347098); further: nearly all actives have a fitted effect of over 65% in size
Summary of the method: (§3)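 Cells (500-1,000/well) rested 5 h, then received compounds for 48 h; metabolically active cells were measured by CellTiter-Glo luminescence. Final concentrations spanned up to 46 µM (MIPE, 11-point) or 0.59 nM-46 µM (NPC, 8-point) in primary screens, 11-point in follow-ups.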

[6] = qHTS of pediatric cancer cell lines to identify multiple opportunities for drug repurposing: Primary screen for NB1643 cells (AID 1347099); further: nearly all actives have a fitted effect of over 50% in size
Summary of the method: as §2

[7] = qHTS of pediatric cancer cell lines to identify multiple opportunities for drug repurposing: Primary screen for BT-12 cells (AID 1347101); further: nearly all actives have a fitted effect of over 25% in size
Summary of the method: as §3

[8] = qHTS of pediatric cancer cell lines to identify multiple opportunities for drug repurposing: Primary screen for OHS-50 cells (AID 1347103); further: nearly all actives have a fitted effect of over 40% in size
Summary of the method: as §3

[9] = qHTS of pediatric cancer cell lines to identify multiple opportunities for drug repurposing: Primary screen for RD cells (AID 1347104); further: nearly all actives have a fitted effect of over 55% in size
Summary of the method: as §2

[10] = qHTS of pediatric cancer cell lines to identify multiple opportunities for drug repurposing: Primary screen for Rh41 cells (AID 1347108); further: nearly all actives have a fitted effect of over 70% in size
Summary of the method: as §2

[11] = qHTS of pediatric cancer cell lines to identify multiple opportunities for drug repurposing: Primary screen for SK-N-MC cells (AID 1347093); settings: SK-N-MC viability, CellTiter-Glo luminescence, 48 h; activity change, negative = cytotoxic: at 46 µM (top of the series)
Summary of the method: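 Metabolically active cells were quantified by ATP-dependent luminescence (CellTiter-Glo, 15 min at room temperature) following 48 h treatment. Cells had been plated at 500-1,000 per well and settled for 5 h beforehand.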

[12] = qHTS of pediatric cancer cell lines to identify multiple opportunities for drug repurposing: Primary screen for BT-37 cells (AID 1347094)
Summary of the method: as §2

[13] = qHTS of pediatric cancer cell lines to identify multiple opportunities for drug repurposing: Primary screen for U-2 OS cells (AID 1347096); further: nearly all actives have a fitted effect of over 50% in size
Summary of the method: (§4)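 Viability after 48 h compound treatment at 37C, 500-1,000 cells/well, read as ATP luminescence with CellTiter-Glo. Primary screens used 11-point (MIPE, 0.78 nM-46 µM) or 8-point (NPC, 0.59 nM-46 µM) final concentrations; follow-up screens used 11-point dilutions.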

[14] = qHTS of pediatric cancer cell lines to identify multiple opportunities for drug repurposing: Primary screen for Saos-2 cells (AID 1347097); further: nearly all actives have a fitted effect of over 40% in size
Summary of the method: as §2

[15] = qHTS of pediatric cancer cell lines to identify multiple opportunities for drug repurposing: Primary screen for LAN-5 cells (AID 1347100); settings: LAN-5 neuroblastoma viability, CellTiter-Glo luminescence, 48 h; activity change, negative = cytotoxic: at 46 µM (top of the series)
Summary of the method: as §4

[16] = qHTS of pediatric cancer cell lines to identify multiple opportunities for drug repurposing: Primary screen for MG 63 (6-TG R) cells (AID 1347105); settings: MG 63 (6-TG R) viability, CellTiter-Glo, 48 h; activity change, negative = cytotoxic: at 46 µM (top of the series); further: nearly all actives have a fitted effect of over 50% in size
Summary of the method: as §2

[17] = qHTS of pediatric cancer cell lines to identify multiple opportunities for drug repurposing: Primary screen for control Hh wild type fibroblast cells (AID 1347106); further: nearly all actives have a fitted effect of over 55% in size
Summary of the method: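 Cells (500-1,000/well) in growth media were settled 5 h at 37 degrees C, then given compounds for 48 h. Viability was read as CellTiter-Glo luminescence. Primary runs used MIPE at 11 points (0.78 nM-46 µM) and NPC at 8 points (0.59 nM-46 µM); follow-ups used 11 points.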

[18] = qHTS of pediatric cancer cell lines to identify multiple opportunities for drug repurposing: Primary screen for Rh30 cells (AID 1347107); further: nearly all actives have a fitted effect of over 75% in size
Summary of the method: as §4

[19] = qHTS of pediatric cancer cell lines to identify multiple opportunities for drug repurposing: Primary screen for Rh18 cells (AID 1347102); further: nearly all actives have a fitted effect of over 65% in size
Summary of the method: as §4
Potency means the concentration at half of the fitted maximal effect; tags describe the fitted curve by direction and shape.

Row | SMILES | Potency [1] | Potency [2] | Potency [3] | Potency [4] | Potency [5] | Potency [6] | Potency [7] | Potency [8] | Potency [9] | Potency [10] | Potency [11] | Potency [12] | Potency [13] | Potency [14] | Potency [15] | Potency [16] | Potency [17] | Potency [18] | Potency [19]
1 | COc1cc2c(cc1OC)CC(=O)N(CCCN(C)C[C@H]1Cc3cc(OC)c(OC)cc31)CC2 | inconclusive: 18.7 µM [cytotoxic, single point] | inconclusive: 11.8 µM [cytotoxic, partial curve] | inconclusive: 14.8 µM [cytotoxic, partial curve] | inconclusive: 20.9 µM [cytotoxic, single point] | inconclusive: 24.1 µM [cytotoxic, partial curve] | inconclusive: 11.8 µM [cytotoxic, partial curve] | inconclusive: 38.5 µM [cytotoxic, partial curve, poor fit] | inconclusive: 21.7 µM [cytotoxic, partial curve] | inconclusive: 18.7 µM [cytotoxic, partial curve, poor fit] | inconclusive: 18.7 µM [cytotoxic, partial curve, poor fit] |  |  |  |  |  |  |  |  | 
2 | O=c1ncn2nc(Sc3ccc(F)cc3F)ccc2c1-c1c(Cl)cccc1Cl | inconclusive: 29.6 µM [cytotoxic, single point] | inconclusive: 18.7 µM [cytotoxic, partial curve] | inconclusive: 14.8 µM [cytotoxic, partial curve] | inactive | inconclusive: 38.3 µM [cytotoxic, single point] |  | inconclusive: 19.3 µM [cytotoxic, partial curve] | inconclusive: 3.43 µM [cytotoxic, partial curve, poor fit] |  | inconclusive: 3.72 µM [cytotoxic, partial curve] | inconclusive: 11.8 µM [cytotoxic, partial curve, poor fit] | inconclusive: 24.3 µM [cytotoxic, partial curve] | inconclusive: 14.8 µM [cytotoxic, partial curve, poor fit] | inconclusive: 3.32 µM [cytotoxic, partial curve] | inconclusive: 23.5 µM [cytotoxic, single point] |  |  |  | 
3 | COc1ccc(OC)c(-c2nnc3ccc(-c4ccc(OC)c(O[C@@H]5CCOC5)c4)nn23)c1 | inconclusive: 37.2 µM [cytotoxic, single point] | inconclusive: 29.6 µM [cytotoxic, single point] |  |  |  |  |  | active: 17.2 µM |  | active: 20.9 µM | active: 18.7 µM | active: 27.3 µM | inconclusive: 29.6 µM [cytotoxic, single point] | active: 29.6 µM |  | inconclusive: 37.2 µM [cytotoxic, single point] | inconclusive: 33.2 µM [cytotoxic, single point] | inconclusive: 26.4 µM [cytotoxic, single point] | 
4 | CCCCc1oc2ccc(NS(C)(=O)=O)cc2c1C(=O)c1ccc(OCCCN(CCCC)CCCC)cc1 | inconclusive: 37.2 µM [cytotoxic, single point] and inconclusive: 26.6 µM [cytotoxic, single point] | active: 11.8 µM and inconclusive: 29.9 µM [cytotoxic, single point] | inconclusive: 26.6 µM [cytotoxic, single point] | inconclusive: 26.4 µM [cytotoxic, single point] and inconclusive: 26.6 µM [cytotoxic, single point] |  | active: 18.7 µM and inconclusive: 29.9 µM [cytotoxic, single point] |  |  |  | active: 23.5 µM and inconclusive: 29.9 µM [cytotoxic, single point] | inconclusive: 37.2 µM [cytotoxic, single point] |  | inconclusive: 23.5 µM [cytotoxic, single point] and inconclusive: 26.6 µM [cytotoxic, single point] |  |  | inconclusive: 37.2 µM [cytotoxic, single point] | inconclusive: 29.9 µM [cytotoxic, single point] | inconclusive: 23.5 µM [cytotoxic, partial curve] and inconclusive: 21.1 µM [cytotoxic, single point] | active: 18.7 µM and inconclusive: 29.9 µM [cytotoxic, single point]
5 | O=C(O)c1ccc(-n2nc(-c3ccccc3O)nc2-c2ccccc2O)cc1 | inconclusive: 33.5 µM [cytotoxic, single point] and inconclusive: 23.5 µM [cytotoxic, single point] | inconclusive: 33.5 µM [cytotoxic, single point] and active: 20.9 µM | inconclusive: 21.1 µM [cytotoxic, single point] and inconclusive: 23.5 µM [cytotoxic, single point] | inconclusive: 26.6 µM [cytotoxic, single point] | inconclusive: 19.4 µM [cytotoxic, partial curve] and inconclusive: 42.9 µM [cytotoxic, single point] |  | inconclusive: 24.6 µM [cytotoxic, single point] and inconclusive: 27.3 µM [cytotoxic, partial curve] | inconclusive: 27.6 µM [cytotoxic, single point] and active: 21.7 µM | inconclusive: 26.6 µM [cytotoxic, single point] and inconclusive: 41.8 µM [cytotoxic, single point] | inconclusive: 16.8 µM [cytotoxic, partial curve, poor fit] and inconclusive: 20.9 µM [cytotoxic, single point] |  | inconclusive: 24.3 µM [cytotoxic, partial curve] | inconclusive: 26.6 µM [cytotoxic, single point] and inconclusive: 29.6 µM [cytotoxic, single point] | inconclusive: 11.9 µM [cytotoxic, partial curve] and inconclusive: 9.35 µM [cytotoxic, full curve] | inconclusive: 33.2 µM [cytotoxic, single point] |  |  |  | 
6 | CC(=O)c1c(C)c2cnc(Nc3ccc(N4CCNCC4)cn3)nc2n(C2CCCC2)c1=O | inconclusive: 18.7 µM [cytotoxic, single point] | inconclusive: 18.7 µM [cytotoxic, partial curve] | active: 14.8 µM |  |  |  | inconclusive: 27.3 µM [cytotoxic, single point] | active: 19.3 µM |  | inconclusive: 18.7 µM [cytotoxic, partial curve] |  |  | inconclusive: 18.7 µM [cytotoxic, single point] |  |  |  |  | inconclusive: 18.7 µM [cytotoxic, partial curve] | active: 23.5 µM
7 | Cc1ccc(-c2cc(C(F)(F)F)nn2-c2ccc(S(N)(=O)=O)cc2)cc1 | inconclusive: 33.5 µM [cytotoxic, single point] | inconclusive: 18.8 µM [cytotoxic, partial curve] | inconclusive: 33.5 µM [cytotoxic, single point] | inconclusive: 13.3 µM [cytotoxic, partial curve] | inconclusive: 24.1 µM [cytotoxic, partial curve, poor fit] | inconclusive: 29.6 µM [cytotoxic, single point] | inconclusive: 38.9 µM [cytotoxic, single point] | inconclusive: 38.9 µM [cytotoxic, single point] and inconclusive: 27.3 µM [cytotoxic, partial curve] | inconclusive: 26.6 µM [cytotoxic, single point] and inconclusive: 33.2 µM [cytotoxic, partial curve, poor fit] | inconclusive: 26.6 µM [cytotoxic, single point] and inconclusive: 29.6 µM [cytotoxic, partial curve, poor fit] | inconclusive: 33.5 µM [cytotoxic, single point] and inconclusive: 37.2 µM [cytotoxic, single point] | inconclusive: 21.9 µM [cytotoxic, single point] and inconclusive: 27.3 µM [cytotoxic, single point] |  | inconclusive: 33.2 µM [cytotoxic, single point] |  |  |  | inconclusive: 18.7 µM [cytotoxic, partial curve, poor fit] | inconclusive: 33.2 µM [cytotoxic, partial curve, poor fit]
8 | Cc1ccccc1C(=O)c1ccc(Nc2ccc(Br)cc2N)cc1Cl | inconclusive: 23.5 µM [cytotoxic, single point] | active: 23.5 µM | active: 18.7 µM | inconclusive: 23.5 µM [cytotoxic, single point] |  | active: 20.9 µM | inconclusive: 19.3 µM [cytotoxic, partial curve] | inconclusive: 0.685 µM [cytotoxic, full curve] | inconclusive: 33.2 µM [cytotoxic, single point] | inconclusive: 9.35 µM [cytotoxic, partial curve] |  | inconclusive: 24.3 µM [cytotoxic, partial curve, poor fit] | inconclusive: 23.5 µM [cytotoxic, single point] |  | inconclusive: 23.5 µM [cytotoxic, single point] | inconclusive: 29.6 µM [cytotoxic, single point] |  | inconclusive: 6.62 µM [cytotoxic, partial curve] | inconclusive: 7.43 µM [cytotoxic, partial curve]
